Results as given in the RNAGym collection of RNA variant scans (doi:10.1073/pnas.2313332121).
This sample is rich in variants without activity.

B1: TPR 5TU (parent)
chain: GGAUCUUCUCGAUCUAACAAAAAAGACAAAUCUGCCACAAAGCUUGAGAGCAUCUUCGGAUGCAGAGGCGGCAGCCUUCGGUGGCGCGAUAGCGCCAACGUUCUCAACUAUGACACGCAAAACGCGUGCUCCGUUGAAUGGAGUUUAUCAUG

Variants of: B1
Assay: polymerase ribozyme fitness, log enrichment relative to wild type (log ratio); higher = more active; in vitro selection for triplet polymerase activity
Procedure, shortened: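 After PCR construction and transcription, each subunit's mutant library from a heterodimeric triplet polymerase ribozyme was annealed with a biotinylated primer, the partner subunit and triplets. Incubation was frozen, at −7 °C, and extended constructs were gel-excised, bound to streptavidin beads and amplified by RT-PCR, in one selection round done in triplicate. Fitness is the logarithm of a genotype's enrichment divided by that of the wild type, from inverse-variance-weighted replicate averages of Illumina-sequenced inputs and outputs. The base of the logarithm is 2, and genotypes needed ≥10 input reads and ≥1 read per output.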
With GGAUCUUAUCGGUCUAACAAAAAAGACAAAUCUGCAACAAAGCUUGAGAUCAUCAUCGGAUGCAGAGGCGGCAGCCUUCGGUGGCGCGAUAGCGCCAACGUUCUCAACUAUGACACGCAAAACGCGUGCUCCGUUGAAUGGAGUUUAUCAUG [C8A A12G C36A G50U U55A] the “polymerase ribozyme fitness (log ratio)” value was at most -4.2.
In the case of GGAUCUUAUCGUUGUAAUAAAAAAGACAAGUCUGCCACAAAGCUUGAGAGCAUCUUCGGAUGCAGAGGCGGCAGCGUUCGGUGGCGCGAUAGCGCCAACGUUCUCAACUAUGACACGCAUAACGCGUGAUCCGUUGAAAGGAGUUUAUCUUG [C8A A12U C14G C18U A30G C76G A120U C129A U139A A150U], the “polymerase ribozyme fitness (log ratio)” value is reported as at most -4.2.
For GGAUCUUAUCGUUCUAACAAAAAAAACAAAUCUGCCACAAAGCUUGAGAGCAUCUUCGGAUGCAGAGGCGGCAGCCUUCGGUGGCUCGAUAGCGCCAACGUUCUCAACUAUGACACGCAAAACGCGUGCUGCGUUGAAUGGAGUUUAUCAUG [C8A A12U G25A G86U C131G], the “polymerase ribozyme fitness (log ratio)” value was at most -4.2.
For GGAUCUUAUCGUUCGAACAAAAAAGACAAAUCUGCCACAAAGCUUGAGAGCAUCUUCGGAUUCAGAGGCGGCAGCCUUCGGUGGCGCGAUAGCGCCAACGUUCUCAACUAUGACACGCAAAACACGUGCUCCGUUGAAUGGAGUUUAUCAUG [C8A A12U U15G G62U G124A], the “polymerase ribozyme fitness (log ratio)” value was at most -4.2.
With GGAUCUUAUCGAUCUCACAAAAAAGACAAAUCUGCCACAAAGCUUGAGAGCAACUUCGGAUGCAGAGGCGGCAGCCUUCGGUGCCGCGAUAGCGCCAACGUUCUAAACUAUGACACGCAAAACGUGUGCUCCGUUGAAUGCAGUUUAUCAUG [C8A A16C U53A G84C C105A C125U G141C] the “polymerase ribozyme fitness (log ratio)” value was at most -4.2.
With GGAUCUUAUCGAUCUGACCGAAAAGACAAAUCUGCCACAAAGUUUGAGAGCAACUUCGGAUGCAGAGGCGGCAGCCUUCGGUGGUGCGAUAGCGCUAACGUUCUCAACUAUGACACGCUCAACGCGUGCUCCGAUGAAUGGAGUUUAUCAUG [C8A A16G A19C A20G C43U U53A C85U C96U A119U A120C U134A] the “polymerase ribozyme fitness (log ratio)” value was at most -4.2.
In the case of GGAUCUUAUCGAUCUUACAAAAAAGACAAAUCUGCCACAAAGCUUGAGAGCAUCUUCGGAUGCAGAGGCGGCUGCCUUCGGUGGCUCGAUAGCGCCAACGUUCUCAACUAUGACACGCAAAACGCGUGCUCCGUUGAAUGGAGUUUAUCAUG [C8A A16U A73U G86U], the “polymerase ribozyme fitness (log ratio)” value is reported as at most -4.2.
In the case of GGAUCUUAUCGAUCUUACAAAAAAGACAAAUCUGCCACAAAGCUUGAGAGCAUCAUCGGAUGCAGAGGCGGCAGCCUUCGGUGGCGAGAUAGCGCCAACGUUCUCAACUAUGACACGCAAAACCCGUGCUCCGUUGAAUGGAGUUUAUCAUG [C8A A16U U55A C87A G124C], the “polymerase ribozyme fitness (log ratio)” value is reported as at most -4.2.
With GGAUCUUAUCGAUCUACCAAAAAGGACAAGUCUGGCACAAAGCUUGAGAGCAUCUUCGGAUGCAGAGGCGGCAGCCUUCGCUGGCGCGCUAGCGCCAACGUUCUCAACUAUGACACGCAAAACGCGUGCUCCGUUGAAUGCAGUUUAUCAUG [C8A A17C A24G A30G C35G G81C A89C G141C] the “polymerase ribozyme fitness (log ratio)” value was -3.67.
With GGAUCUUAUCGAUCUACCAAAAAAGACAAAUCUGUCACAAAGCUUGAGAGCAUCUUCGGAUGAAGAGGCGGCAGCCUUCGGUGGCGCGAUAGCGCCAACGUUCUCAACUAUGACACGCAAAACGCGUGCUCCGUUGAAUGGAGUUUAUCAUG [C8A A17C C35U C63A] the “polymerase ribozyme fitness (log ratio)” value was at most -4.2.
For GGAUCUUAUCGAUCUACCAAAAAAGACAAAUCUGCCACAAAGAUUGAGAGCAUCUUCGGAAGCAGAGGCGGCAGCCUUCGGUGGCGAGAUAGCGCCAACGUUGUCAACUAUGACUCGCAAAACGCGUGCUCCGUUGAAUGGACUUUAUCACG [C8A A17C C43A U61A C87A C103G A115U G143C U151C], the “polymerase ribozyme fitness (log ratio)” value was at most -4.2.
With GGAUCUUAUCGAUCUAGCAACAAAGACAAAUCUGCCACAAAGCUUGAGAGCAACUUCGGAUGCAGAGGCGGCAGCCUUCGGUGGCGCGAUAGCGCCAACGUUCUCAACUAUGCCACGCAAAACGCGUGCUCCGUUGAAUGGAGUUUAUCAUG [C8A A17G A21C U53A A113C] the “polymerase ribozyme fitness (log ratio)” value was at most -4.2.
For GGAUCUUAUCGAUCUAGCAAAAAAGACAAAUCUGCCACAAAGCUUGAGAGCAUCUUCGGCUGCAGAGGCGGCAGCCUUCGGUGGUGCGAUAGCGCCAACGUUCUCAACUAUGACACGCAAAACGCGUGCUCCGUUGAAUGGAGUUUAUCAUG [C8A A17G A60C C85U], the “polymerase ribozyme fitness (log ratio)” value was at most -4.2.
With GGAUCUUAUCGAUCUAGCAAAAAAGACAAAUCUGCCACAAAGCUUGAGACCAUCUUCGGAUGCAGAGGCGGCAGCCUUCGGUGGAGCGAUAGCGCCAACGUUCUCAACUAUGACACGCAAAACGCGUGCUCCGUUGAAUGGAGUUUAUCAUG [C8A A17G G50C C85A] the “polymerase ribozyme fitness (log ratio)” value was at most -4.2.
In the case of GGAUCUUAUCGAUCUAUCAAAAUAGGGAAAUCUGCCACAAAGCUUGAGAGCAUAUUCGGAUGCAGAGGCGGCAGCCUUCGGUAGCGCGAUAGCGCCAACGUUCUCAACUAUGACACGAAAAACGCGUGCUCCGUUGAAUGGAGUUUAUCAUG [C8A A17U A23U A26G C27G C54A G83A C118A], the “polymerase ribozyme fitness (log ratio)” value is reported as at most -4.2.
With GGAUCUUAUCGAUCUAUCAAAAAAGACAAAUCUGCCACUAAGCUUGAGAGCAUCUUCGGAUGCAGAGGCGGCAGCCUUCGGUGGUGCGAUAGCGCCAACGUUCUCAACUAUGACACGCAAAACGCGUGCUCCGUUGAAAGGAGUUUAUCAUG [C8A A17U A39U C85U U139A] the “polymerase ribozyme fitness (log ratio)” value was at most -4.2.
In the case of GGAUCUUAUCGAUCUAUCAAAAAAGACAAAUCUGCCACAAUGCUUGAGAGCAUCUUCCGAUGCAGAGGCGGCAGCCUUCGGUGGCGCGAUAGCGCCAACGUUCUCAACUAUGACACGCAAAACGGGUGCUCCGUUGAAUGGAGUUUAACAUG [C8A A17U A41U G58C C125G U148A], the “polymerase ribozyme fitness (log ratio)” value is reported as at most -4.2.
With GGAUCUUAUCGAUCUAACCAUAAAGACAAAUCUGCCACAAAGCUUGAGAGCAUCUUCGGAUGCAGAGGCGGCAGCCUUCGGUGGCGCGAUAGCGCCAACGUUCUCAACUAUGACACGCGAAACGCGUGCUCCGUUGAAUGGAGUUUAUCAUG [C8A A19C A21U A119G] the “polymerase ribozyme fitness (log ratio)” value was at most -4.2.
In the case of GGAUCUUAUCGAUCUAACGAAAAAGACAAAUCUGCCACAAAGCUUGAGAGCAUCUUCGGAUGCAGAGGCGACAGCCUUCGGGGGCGCGAUAGCGCCAACGUUCUCAACUAUGACACGCAAAACGCGUGCUCCGUUUAAUGGAGUUUAUCAUG [C8A A19G G71A U82G G136U], the “polymerase ribozyme fitness (log ratio)” value is reported as at most -4.2.
